Here are results for 65 compounds from PMC6919601, “Identification of Plasmodium dipeptidyl aminopeptidase allosteric inhibitors by high throughput screening” (PLoS ONE, 2019).

In all, about 110,000 compounds went through this assay and about 230 (0.21%) showed an effect of 50% or more. Some of the results follow.
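Further: 30 min substrate incubation versus DMSO and 10 µM JCP410 controls.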

The target in this assay is DPAP1 (Plasmodium falciparum, UniProt Q8IIJ9). The experiment in a line: primary screen, percent inhibition; read by cleavage of a fluorogenic dipeptide substrate; higher = more effect of the substance. On the set-up: species or system P. falciparum D10 trophozoite lysates; single well.
Chain of DPAP1 (Q8IIJ9 whole entry, looked up): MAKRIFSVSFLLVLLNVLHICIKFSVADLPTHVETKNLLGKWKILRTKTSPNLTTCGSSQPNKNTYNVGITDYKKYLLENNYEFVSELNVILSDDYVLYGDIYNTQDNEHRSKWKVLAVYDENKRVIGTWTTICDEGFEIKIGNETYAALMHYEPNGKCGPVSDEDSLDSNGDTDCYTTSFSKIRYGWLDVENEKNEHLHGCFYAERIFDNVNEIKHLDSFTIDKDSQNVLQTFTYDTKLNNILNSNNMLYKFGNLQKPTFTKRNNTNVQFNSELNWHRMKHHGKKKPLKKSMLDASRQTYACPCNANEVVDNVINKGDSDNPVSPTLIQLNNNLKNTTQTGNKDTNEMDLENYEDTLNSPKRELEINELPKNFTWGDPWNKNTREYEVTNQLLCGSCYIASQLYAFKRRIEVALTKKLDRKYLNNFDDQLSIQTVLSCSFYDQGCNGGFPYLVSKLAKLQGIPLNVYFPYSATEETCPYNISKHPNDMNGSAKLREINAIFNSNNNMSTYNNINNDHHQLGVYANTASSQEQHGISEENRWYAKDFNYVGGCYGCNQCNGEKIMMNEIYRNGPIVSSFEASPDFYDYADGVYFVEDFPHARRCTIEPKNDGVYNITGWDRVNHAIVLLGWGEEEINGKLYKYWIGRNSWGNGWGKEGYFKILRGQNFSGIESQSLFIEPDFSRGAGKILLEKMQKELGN
As for `Cc1cccc(-c2noc(CNC(=O)C(C)(C)C)n2)c1`, the “% Inhibition @ 10 uM” value turned out to be 2.14%.
Next, `CCN(CC)CCN(C)Cc1ccc(C)cc1`: -4.28%; `CCN(CC)S(=O)(=O)c1ccc(NC(=O)COc2ccc(Cl)c(C)c2)cc1`: -0.132%; `O=C(NCCCCc1ccccc1)c1ccc(Cl)cc1`: 3.53%.
Next, `COc1cc(CN2CCN(Cc3cccc(C)c3)CC2)cc(OC)c1`: -6.57%; `COc1cc(OC)c(OC)cc1/C=C1/SC(Nc2ccccc2)=NC1=O`: 9.94%.
The result for `Cc1nc2cc(C(=O)NCc3cccnc3)ccc2n1-c1ccc(Br)cc1` reads 4.35%.
In the case of `O=C(O)CSc1nnc(Nc2ccccc2)n1-c1ccccc1`, the “% Inhibition @ 10 uM” value is -3.98%.
Next, `CCOC(=O)c1cnc2cc(-c3ccc(OC)cc3)nn2c1-c1ccccc1`: 2.96%; `C=CCc1ccc(OCCOc2ccc(/C=C3/C(=N)N4OC(C)=CC4=NC3=O)cc2Cl)c(OC)c1`: -3.23%; `COc1ccc(Cl)cc1S(=O)(=O)N1CCN(c2cccc(Cl)c2)CC1`: 4.25%.
Next, `CCOc1ccccc1-n1nnc(-c2nc(-c3ccc(C)cc3)no2)c1N`: 1.13%; `Cc1ccc(/C=N/OC(=O)c2nn(C)cc2Cl)cc1`: -0.995%; `COc1ccc(-c2nc3cc(N)ccc3o2)cc1Br`: -3.82%.
Next, `O=S1(=O)C(/C=N/CCc2c[nH]c3ccccc23)=C(O)c2sccc2N1Cc1cccc(F)c1`: -5.38%; `CCc1nc2ccccc2c(NC(=O)CN2CCN(Cc3ccccc3)CC2)c1C`: -2.91%; `CC(=O)c1cc2c(cc1NC(=O)COc1ccc(C)cc1C)OCO2`: -2.32%.
Consider `Cc1ccnc(NC(=O)Cc2ccc(Br)cc2)c1`, for which the “% Inhibition @ 10 uM” value is 3.29%.
Next, `COc1ccc(C(=O)Nc2cccc(C(C)=O)c2)cc1Br`: 2.01%.
Turning to `N#CCNC(=O)[C@H](CC1CCCCC1)NC(=O)c1ccccc1`, the “% Inhibition @ 10 uM” value is -0.214%.
Next, `CC(=O)c1ccc(NC(=O)c2ccc(-c3ccccc3)cc2)cc1`: -3.41%; `Cc1ccc(C(=O)Nc2cccc(C(=O)O)c2)o1`: 0.132%; `Cc1cc(C)n(CCc2nc3c4ccccc4nc(NCCC(C)C)n3n2)n1`: -2.42%.
The result for `COc1ccc(C2C3=C(O)CCCC3=Nc3nc(SCC(C)C)nn32)c(OC)c1` (centres unmarked) reads -0.704%; that for `CCCCNC(=O)c1cc2nc(-c3ccc(OCC)cc3)cc(C)n2n1`, -7.15%; that for `Cc1nc(N2C(=O)C(O)=C(C(=O)c3ccc(Cl)cc3)C2c2ccco2)sc1C` (centres unmarked), -7.17%.
The result for `CN1CCc2c1nc1ccccc1c2NC(=O)CN1CCCCC1` reads -4.21%.
Regarding `CC(C)c1nn2c(=O)cc(CSc3nnc(NC(=O)c4ccc5c(c4)OCO5)s3)nc2s1`, the “% Inhibition @ 10 uM” value turned out to be 0.747%.
Regarding `Cc1ccc2nc3c(O)n(CC(=O)NCc4cccnc4)ncc-3c2c1`, the “% Inhibition @ 10 uM” value is -4.59%.
`CCN(CC)c1ccc(NC(=O)c2ccc(S(=O)(=O)N3CCCCC3C)cc2)cc1` (centres unmarked): the “% Inhibition @ 10 uM” value was found to be 3.24%.
The result for `CCOC(=O)c1cnc2c(-c3ccc(Cl)cc3)c(C)nn2c1N` reads -1.37%.
The result for `O=C(Nc1ccccc1F)c1cccc2ccccc12` reads 2.13%; that for `COc1ccc2c(c1)C1CC(C)(O2)N(C)C(=O)C1S(=O)(=O)c1ccc(C)c(C)c1` (centres unmarked), 2.57%; that for `CCOC(=O)c1c(C)c(-c2ccccc2)n(CC(=O)NCCCN(C)Cc2ccccc2)c1C`, 1.72%.
The result for `O=C(NC1CCN(Cc2ccccc2)CC1)c1ccccc1Cl` reads -0.292%.
Take `COc1ccc(-c2nnc3sc(NC(=O)COc4ccccc4F)nn23)cc1OC`: the “% Inhibition @ 10 uM” value was found to be 3.36%.
Consider `CS(=O)(=O)Oc1cc2oc(=O)c3c(c2cc1Cl)CCCC3`, for which the “% Inhibition @ 10 uM” value is listed as -3.41%.
The result for `COc1cc(CN2CCN(c3ccccc3F)CC2)cc(OC)c1` reads 2.46%; that for `O=C(O)c1ccc(-n2cnnn2)cc1`, -6.06%; that for `CCS(=O)(=O)N1CC=C(c2c(C)n(CC(=O)N3CCCC3)c3ccccc23)CC1`, 3.96%.
As to `CS(=O)(=O)N(CC(=O)NCc1ccc(Cl)cc1Cl)c1cccc(F)c1`, the “% Inhibition @ 10 uM” value is on record as -4.16%.
The result for `Cc1sc(NC(=O)c2cccc3ccccc23)c(C(N)=O)c1C` reads 4.81%; that for `CC(C)COC(C(=O)OC(C)CN(C)C)(c1ccccc1)c1ccccc1` (centres unmarked), -1.42%; that for `COc1ccc(NC(=O)COc2ccccc2C)cc1`, 3.5%.
Regarding `COc1ccccc1N1CCN(C2CC(=O)N(C)C2=O)CC1` (centres unmarked), the “% Inhibition @ 10 uM” value is 0.98%.
Next, `CCOCCCNC(=O)c1cc(C)nc2c1c(C)nn2-c1ccccc1`: 5.32%; `COCCNC(=O)Cn1cc(C=C2C(=O)N(C)C(=O)N(C)C2=O)c2ccccc21`: -1.26%.
The result for `CCOc1ccc2sc(/C=N/CCc3ccccn3)c(O)c2c1` reads 4.54%; that for `O=c1sc2ccccc2n1Cc1cccc(Cl)c1`, 2.46%.
The result for `O=S(=O)(c1ccccc1)c1cnc2cc3c(cc2c1N1CCOCC1)OCCO3` reads -6.24%; that for `C=CCNC(=O)CN(Cc1ccc(C)cc1)S(=O)(=O)c1ccccc1`, -6.81%; that for `COc1ccc(C2NC(C(=O)O)CS2)c(OC)c1` (centres unmarked), 19.3%.
For the compound `CCOC(=O)N1CCC(Nc2nc3ccc(Cl)cc3n3cnnc23)CC1`, the “% Inhibition @ 10 uM” value is -0.735%.
Next, `Cc1ccccc1N(CC(=O)Nc1cccc(Br)c1)S(C)(=O)=O`: -6.77%.
Next, `COc1ccc(C(=O)C2=C(O)C(=O)N(CCN3CCOCC3)C2c2cccs2)c(C)c1` (centres unmarked): -1.61%; `O=C(CC(c1ccc(F)cc1)N1Cc2ccccc2C1=O)Nc1nccs1` (centres unmarked): -4.97%.
Turning to `CCCN1C(=O)C(O)(CC(=O)c2ccc(OC)cc2)c2cc(Br)ccc21` (centres unmarked), the “% Inhibition @ 10 uM” value worked out at 1.57%.
As to `Cn1ccnc1CC(O)(c1ccccc1)c1ccccc1`, the “% Inhibition @ 10 uM” value was found to be 6.32%.
The result for `O=C(CNS(=O)(=O)c1ccccc1)N1CCCCC1` reads 0.0504%; that for `COc1ccc(S(=O)(=O)NC(Cc2ccccc2)C(=O)O)cc1` (centres unmarked), -7.23%.
Next, `CCC(C)NCc1c(C(=O)O)n(Cc2ccccc2F)c2cc(OC)ccc12` (centres unmarked): 0.896%; `O=C(O)CN(CC(=O)O)C1CCCCC1N(CC(=O)O)CC(=O)O` (centres unmarked): 2.32%; `COc1cccc(OC)c1C(=O)O/N=C(\N)c1ccncc1`: 1.96%.
Next, `O=C(CN1CCCC1)c1ccc(Cl)cc1`: 3.05%; `Cc1cc(C)nc(/N=C(\NCc2ccccc2)NC(=O)Nc2ccccc2)n1`: -2.32%.
